This is an account of results in paper PMC4336329 (PLoS ONE, 2015).

Hit rate of the full screen: of about 310,000 compounds, about 14,000 (4.5%) showed an effect of 50% or more. The effect is printed as a negative number. The list shows a part of the results.
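Note: peak tail current of the secondary pulse compared with the same well before compound.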

For this test, the target named is human ether-à-go-go-related gene (hERG) potassium channel (human, UniProt Q12809). Put plainly: primary screen, population patch clamp on CHO cells stably expressing hERG.
human ether-à-go-go-related gene (hERG) potassium channel, sequence (Q12809 whole entry, looked up): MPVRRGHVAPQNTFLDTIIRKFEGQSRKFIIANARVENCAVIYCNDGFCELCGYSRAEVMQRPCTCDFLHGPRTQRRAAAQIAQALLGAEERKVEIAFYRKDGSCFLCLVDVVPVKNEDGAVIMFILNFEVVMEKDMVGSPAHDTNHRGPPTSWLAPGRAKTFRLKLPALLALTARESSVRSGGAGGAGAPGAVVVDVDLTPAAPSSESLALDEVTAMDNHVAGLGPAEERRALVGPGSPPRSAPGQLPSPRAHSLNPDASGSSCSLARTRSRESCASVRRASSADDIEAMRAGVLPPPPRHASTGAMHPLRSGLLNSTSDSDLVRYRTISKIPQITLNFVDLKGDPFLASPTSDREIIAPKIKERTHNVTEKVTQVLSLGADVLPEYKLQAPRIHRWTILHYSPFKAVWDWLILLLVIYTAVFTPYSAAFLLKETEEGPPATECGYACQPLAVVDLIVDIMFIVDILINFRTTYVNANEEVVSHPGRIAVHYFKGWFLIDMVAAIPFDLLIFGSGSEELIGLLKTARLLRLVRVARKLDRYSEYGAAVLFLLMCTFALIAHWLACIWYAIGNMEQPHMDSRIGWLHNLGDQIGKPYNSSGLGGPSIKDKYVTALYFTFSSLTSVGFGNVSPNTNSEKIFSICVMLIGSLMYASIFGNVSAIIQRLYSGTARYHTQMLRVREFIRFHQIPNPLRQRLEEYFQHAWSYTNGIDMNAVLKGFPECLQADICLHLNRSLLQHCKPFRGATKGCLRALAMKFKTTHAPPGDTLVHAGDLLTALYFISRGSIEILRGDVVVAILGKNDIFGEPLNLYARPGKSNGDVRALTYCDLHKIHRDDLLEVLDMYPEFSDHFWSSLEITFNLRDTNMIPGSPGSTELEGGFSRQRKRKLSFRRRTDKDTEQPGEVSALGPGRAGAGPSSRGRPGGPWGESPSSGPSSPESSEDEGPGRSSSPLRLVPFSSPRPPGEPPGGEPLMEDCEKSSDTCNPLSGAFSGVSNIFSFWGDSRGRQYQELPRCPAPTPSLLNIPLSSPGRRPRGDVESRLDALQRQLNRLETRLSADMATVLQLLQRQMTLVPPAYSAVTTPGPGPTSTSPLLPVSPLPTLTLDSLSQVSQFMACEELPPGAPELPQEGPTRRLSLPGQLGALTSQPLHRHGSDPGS
As for `CN(C(=O)COC(=O)c1cc(S(=O)(=O)N2CCOCC2)ccc1Cl)C1CCS(=O)(=O)C1` (stereo not shown), the “hERG current change (%, negative = inhibition) at 10uM” value was found to be 8.47%.
Turning to `Cc1ccc2[nH]c3c(c2c1)CCCC3NC(=O)CCl` (stereo not shown), the “hERG current change (%, negative = inhibition) at 10uM” value is recorded as -0.581%.
As to `CCCCC[C@H](O)/C=C/[C@@H]1[C@@H](CCCCCCC(=O)O)[C@@H](O)C[C@H]1O`, the “hERG current change (%, negative = inhibition) at 10uM” value is reported as 19.6%.
As to `CNCCC=C1c2ccccc2C=Cc2ccccc21`, the “hERG current change (%, negative = inhibition) at 10uM” value was -1.12%.
On to `Cc1ccc(SCC(=O)c2c(C)[nH]c3ccccc23)cc1`, for which the “hERG current change (%, negative = inhibition) at 10uM” value was 2.9%.
For `COc1ccc(C(=O)N2CCCCCC2)cc1OC1CCN(C(C)C)CC1`, the “hERG current change (%, negative = inhibition) at 10uM” value is -3.14%.
For `O=C(NC1CC2CCC(C1)N2Cc1nnnn1Cc1ccco1)NC12CC3CC(CC(C3)C1)C2` (stereo not shown), the “hERG current change (%, negative = inhibition) at 10uM” value was -42.9%.
Consider `CCCCc1nc2cc(C(=O)N3CCNC(=O)C3CC(=O)OC)ccc2o1` (stereo not shown), for which the “hERG current change (%, negative = inhibition) at 10uM” value is given as 14.2%.
Consider `CCN=C(NS(=O)(=O)c1ccc(Br)cc1)c1ccc(Cl)cc1`, for which the “hERG current change (%, negative = inhibition) at 10uM” value worked out at 10.4%.
For the compound `Nc1nncn1C(=O)c1cc(Br)ccc1Cl`, the “hERG current change (%, negative = inhibition) at 10uM” value stood at 6.05%.
Turning to `CCN1/C(=C/c2ccc3ccccc3[n+]2CCCS(=O)(=O)[O-])C=Cc2cc(C)ccc21`, the “hERG current change (%, negative = inhibition) at 10uM” value is reported as 24.2%.
Turning to `CCC(=O)N1CC(=O)Nc2ccc(Cl)cc2C1c1ccc(F)cc1` (stereo not shown), the “hERG current change (%, negative = inhibition) at 10uM” value is given as -15.5%.
With `O=C(COC(=O)CCSc1ccc(Cl)cc1)Nc1ccc(F)cc1`, the “hERG current change (%, negative = inhibition) at 10uM” value stood at 3.83%.
`Cc1noc(C)c1S(=O)(=O)Nc1ccc(C#N)cc1`: the “hERG current change (%, negative = inhibition) at 10uM” value is 26.2%.
In the case of `COc1ccc(S(=O)(=O)N2CCOCC2)cc1NC(=O)COC(=O)C1CC1C` (stereo not shown), the “hERG current change (%, negative = inhibition) at 10uM” value is recorded as -14.4%.
In the case of `Cc1cc(C)cc(NC(=O)C2C3C=CC4(O3)C2C(=O)N(CCCN2CCCCC2)C4C(=O)NC2CCCCC2)c1` (stereo not shown), the “hERG current change (%, negative = inhibition) at 10uM” value amounted to 20.7%.
With `C1COCCO1.Cn1c2c(c(=O)n(C)c1=O)C(c1ccccc1Cl)C(C#N)=C(N)O2` (stereo not shown) the figure was -0.151%.
With `CC(C)(C)NC(=O)NC(=O)CSc1n[nH]c(-c2ccccc2Br)n1` the figure was -7.9%; with `CC(=O)N1CCc2cc(S(=O)(=O)N3CCOCC3)ccc21`, 8.67%.
Turning to `COc1ccc(OC)c(C2NC(=O)NC(C)=C2C(=O)Nc2ccc(C)cc2C)c1` (stereo not shown), the “hERG current change (%, negative = inhibition) at 10uM” value is -11.6%.
As for `CO/N=C/CC(=O)c1ccc([N+](=O)[O-])c(CS(=O)(=O)c2ccc(Cl)cc2)c1`, the “hERG current change (%, negative = inhibition) at 10uM” value is reported as -19.4%.
With `Cc1c(Br)c([N+](=O)[O-])nn1CCCC(=O)NC(C)c1ccccc1` (stereo not shown) the figure was -16.2%; with `O=C(c1ccccc1)N1CCN(c2ccc([N+](=O)[O-])cc2-n2cccc2)CC1`, -54.5%; with `O=C(CSCC(=O)NC1CC1)Nc1ccccc1`, 1.08%.
Consider `O=C(NCCc1ccc(C(F)(F)F)cc1)C1CCC(=O)N(CCCc2ccccc2)C1` (stereo not shown), for which the “hERG current change (%, negative = inhibition) at 10uM” value was -50.2%.
With `Cc1nnc(SCCn2c(N3CCCCCC3)nc3c2c(=O)[nH]c(=O)n3C)s1`, the “hERG current change (%, negative = inhibition) at 10uM” value is -7.4%.
With `N#C/C(=C(/O)c1ccco1)c1nc2ccccc2[nH]1` the figure was 17.4%; with `CCCCOCP(=O)(CC)COCCCC`, 7.27%.
On to `COc1cc(C(=O)Nc2ccc(C)cc2)c(-n2cnnn2)cc1OC`, for which the “hERG current change (%, negative = inhibition) at 10uM” value is on record as -1.87%.
With `O=C(NC1CCCCC1)C(c1ccccc1F)N(Cc1ccco1)C(=O)c1ccccn1` (stereo not shown) the figure was -4.03%.
Regarding `Cc1oc2nc(SCC(=O)NC3CCCCC3)nc(N)c2c1C`, the “hERG current change (%, negative = inhibition) at 10uM” value is -14.8%.
For `O=C(COC(=O)c1cccc(Br)c1)NCCNC(=O)COC(=O)c1cccc(Br)c1`, the “hERG current change (%, negative = inhibition) at 10uM” value is 24%.
With `COc1ccc(/C(N)=N/OC(=O)c2ccco2)cc1` the figure was 8.02%.
With `CNS(=O)(=O)c1cccc(C(=O)OCC(=O)Nc2ccc(-c3nc4ccc(C)cc4s3)cc2)c1`, the “hERG current change (%, negative = inhibition) at 10uM” value was 0.307%.
For the compound `COc1ccc(NC(=O)CSc2cn[nH]n2)cc1OC`, the “hERG current change (%, negative = inhibition) at 10uM” value turned out to be 31.4%.
With `CCN(CC)c1c([N+](=O)[O-])c(=O)n(CC)c2ccccc12`, the “hERG current change (%, negative = inhibition) at 10uM” value is -8.79%.
Consider `Cc1ccc(N(C(=O)CNC(=O)c2ccco2)C(C(=O)NC2CCCCC2)c2cccnc2)c(C)c1` (stereo not shown), for which the “hERG current change (%, negative = inhibition) at 10uM” value is -71.9%.
With `Nc1nnc(Cc2ccc(F)cc2)s1`, the “hERG current change (%, negative = inhibition) at 10uM” value was 2.22%.
As for `COC(=O)CC1(C(=O)OC)Oc2ccc(Br)cc2C(=O)N1c1ccc(Br)cc1Cl` (stereo not shown), the “hERG current change (%, negative = inhibition) at 10uM” value is recorded as 4.17%.
In the case of `CN(C)S(=O)(=O)c1cccc(NC(=S)N2CCc3ccccc32)c1`, the “hERG current change (%, negative = inhibition) at 10uM” value is listed as -15.3%.
In the case of `CSc1ccccc1NC(=O)NCCCl`, the “hERG current change (%, negative = inhibition) at 10uM” value is 14.2%.
As for `CCOC(=O)c1c(C)[nH]c(N=Nc2ccccc2C)c1C`, the “hERG current change (%, negative = inhibition) at 10uM” value was 11%.
`CCOC(=O)Cc1[nH]nc2c1C(c1cc(OC)ccc1OC)C(C#N)=C(N)O2` (stereo not shown): the “hERG current change (%, negative = inhibition) at 10uM” value is given as 4.47%.
With `O=[N+]([O-])c1cc(F)c(N2CCCC2)cc1Br` the figure was 13.7%; with `Cc1ccc(N(CC(=O)NCC2CCCO2)S(C)(=O)=O)cc1Cl` (stereo not shown), 10.8%; with `Cn1c(=O)n(Cc2ccccc2)c(=O)c2c1nc(NCC1CCCO1)n2Cc1ccccc1` (stereo not shown), -12.3%.
For `Nc1nc(Sc2ccc([N+](=O)[O-])cc2[N+](=O)[O-])n[nH]1`, the “hERG current change (%, negative = inhibition) at 10uM” value is listed as 14%.
On to `COc1ccc(-c2csc(-c3cccnc3)n2)cc1C`, for which the “hERG current change (%, negative = inhibition) at 10uM” value was -3.79%.
With `COc1ccc(S(=O)(=O)N2CCN(CC(O)COc3ccc(CC#N)cc3)CC2)cc1OC` (stereo not shown) the figure was -21.5%.
`COC(=O)c1cc(-c2cc(OC)ccc2OC)nc2c1c(=O)n(C)c(=O)n2Cc1ccccc1`: the “hERG current change (%, negative = inhibition) at 10uM” value was determined as 18.1%.
For the compound `COC(=O)c1cc(NC(=O)c2cc(-c3ccc(OC)cc3)oc2C(F)(F)F)ccc1N1CCOCC1`, the “hERG current change (%, negative = inhibition) at 10uM” value was -19.1%.
In the case of `Cc1cc(C(=O)C(=O)N(C)C)c(C)n1-c1ccc(Cl)c(Cl)c1`, the “hERG current change (%, negative = inhibition) at 10uM” value is listed as -28.9%.
As for `CCOC(=O)CCSc1nnc(-c2cccnc2)n1-c1ccccc1OC`, the figure is -7.86%; as for `COc1ccc(NC(=S)N(CCc2c(C)[nH]c3ccccc23)Cc2ccco2)cc1`, 0.208%.
Consider `COc1ccc(CCNC(=O)C(=O)c2c[nH]c3ccccc23)cc1OC`, for which the “hERG current change (%, negative = inhibition) at 10uM” value was found to be 2.33%.
